From the supplement of paper PMC3334620
The full ranking holds about 33,000 sequences; the median of “E-score (-0.5 to 0.5)” is about -0.035, and the highest 2% start at about 0.34. This is one part of the list.

molecular target: T1, Mot3 (UniProt P54785); assay: PBM E-score (8-mer binding enrichment) (E-score (-0.5 to 0.5)); higher = stronger / more preferred TF binding; most listed sequences are background and not binding sites; conditions: protein concentration: 200 nM; construct: GST-full length
T1 sequence: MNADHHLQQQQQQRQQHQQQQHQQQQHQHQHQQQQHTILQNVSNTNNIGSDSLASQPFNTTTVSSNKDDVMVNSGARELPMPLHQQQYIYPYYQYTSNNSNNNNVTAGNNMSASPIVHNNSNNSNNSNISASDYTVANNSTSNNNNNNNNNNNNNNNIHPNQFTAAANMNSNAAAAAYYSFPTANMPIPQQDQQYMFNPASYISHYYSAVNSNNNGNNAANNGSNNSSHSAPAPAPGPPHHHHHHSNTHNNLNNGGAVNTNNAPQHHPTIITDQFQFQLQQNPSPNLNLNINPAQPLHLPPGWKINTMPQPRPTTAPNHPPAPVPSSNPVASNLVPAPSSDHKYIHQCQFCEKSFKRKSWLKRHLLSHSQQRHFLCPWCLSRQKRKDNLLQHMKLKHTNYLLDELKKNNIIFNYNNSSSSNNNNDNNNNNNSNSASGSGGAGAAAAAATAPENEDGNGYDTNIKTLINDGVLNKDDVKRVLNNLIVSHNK
How it was run: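 Universal all-10-mer Agilent arrays, double-stranded by primer extension on fresh or once-stripped slides, were probed with about 100-200 nM GST-tagged yeast transcription factors made by PURExpress. Fluorescent anti-GST detected bound protein, and masliner normalised the scans. E-scores from the Universal PBM Analysis Suite were given to each ungapped eight-base word pooled with its reverse complement.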

Row | Sequence | PBM E-score
1 | ATTGCAGG | 0.181
2 | ATTCGGTC | -0.0932
3 | GAGACAGA | -0.139
4 | GGTGGGCA | 0.0151
5 | CCACTACG | -0.0192
6 | AAACGTCA | -0.0312
7 | ACGGACGC | -0.134
8 | ACCGCGCA | 0.0547
9 | GAACGAGA | -0.0612
10 | GTTGGCCA | -0.263
11 | CAACGCGA | 0.17
12 | AAAAGAAT | 0.171
13 | GACGCGAA | 0.003
14 | AGATCCGG | -0.183
15 | CCATGTTC | 0.174
16 | ACGATAGA | -0.0189
17 | ACGCACGT | 0.101
18 | CCCCGTGC | 0.141
19 | CCTTTATA | 0.222
20 | ACATAACG | 0.271
21 | AGCCTTTA | 0.249
22 | GTGCGAAC | -0.257
23 | ATCGCGGA | -0.412
24 | CTACAGTC | 0.0559
25 | ACCACTCC | -0.311

Row | Sequence | PBM E-score
26 | AGAAGATG | -0.0405
27 | ACAGGTAT | 0.194
28 | CGCGTACC | 0.131
29 | TACGACAA | 0.0669
30 | CATCACCA | -0.193
31 | CGGGTAGA | -0.0712
32 | AAGGGGAG | -0.265
33 | CCTCCACG | -0.182
34 | ATTTGCGA | 0.0812
35 | GTTTGACA | 0.163
36 | CCCGCCGC | -0.301
37 | TGAAAGAA | 0.0538
38 | TCTAAAAA | 0.135
39 | ACCTTTTC | -0.0984
40 | CTGCAGTA | -0.0302
41 | CAGAACGG | -0.218
42 | ACACGTAT | 0.316
43 | CCCTAGAA | -0.0463
44 | CGTCCCGA | -0.203
45 | GCCCAGCC | -0.249
46 | AAAACGGT | -0.0282
47 | ATTTTGAC | 0.182
48 | CTACCGAC | -0.119
49 | CAATTACG | 0.26
50 | AATCACAG | 0.125

Row | Sequence | PBM E-score
51 | CTGAAACC | 0.0366
52 | GCAAAACC | -0.224
53 | AAACAAAT | 0.0643
54 | ACTGATCC | 0.0553
55 | AACCACCC | -0.189
56 | GACTATAA | -0.0717
57 | CCCGAACA | -0.0874
58 | GGTTGCAA | 0.135
59 | AGAATGTA | 0.199
60 | ACGATCAC | 0.0347
61 | ATGCTGGC | -0.024
62 | AAGTACCT | 0.338
63 | CGAAATTC | -0.00685
64 | ACGCCGCG | -0.0932
65 | TACGCGGA | 0.258
66 | CGGAAATA | -0.206
67 | AACTGCTT | -0.0923
68 | AATAGCCC | -0.0901
69 | ATTGGTTA | -0.00722
70 | CGGTAGCA | 0.0236
71 | ACGCGGCA | -0.0255
72 | AGGGCCGA | -0.203
73 | GAAAAGAA | 0.162
74 | AAGCATGC | 0.0444
75 | AGCTGTGC | 0.0823

Row | Sequence | PBM E-score
76 | CAGGATGC | -0.26
77 | AGCAAGAG | 0.0849
78 | GCATATGC | -0.12
79 | ACGCCGGC | -0.185
80 | TACACATA | 0.284
81 | AGGTAGCG | -0.103
82 | AGGGCTGA | -0.111
83 | ACTGAACA | 0.113
84 | GAGGATAA | -0.114
85 | CTGCTTTC | -0.106
86 | ATGGACAC | 0.00818
87 | AAGTAAAT | 0.295
88 | CCATACTA | 0.0332
89 | CTCGTACC | 0.11
90 | AGATCTAG | -0.0228
91 | ATTTGATA | -0.0394
92 | AGCATACT | -0.00471
93 | AGTGTCGC | -0.0232
94 | AGTGGGAG | -0.195
95 | ATACACCA | 0.129
96 | ATAGATAT | 0.00143
97 | ACAACCTG | 0.207
98 | ACGTAAGG | 0.134
99 | GCCTCGAC | 0.134
100 | GTATTTAA | 0.332

Row | Sequence | PBM E-score
101 | GGCACACC | 0.28
102 | CGACTAAG | -0.0615
103 | ATTTTCCC | -0.089
104 | TCTGCAGA | -0.327
105 | TCTACGAA | 0.0989
106 | AGAAGTGG | -0.199
107 | TATTAACA | 0.359
108 | AATGCGAG | -0.081
109 | AGTCGGTG | -0.245
110 | GCACCTAA | 0.103
111 | CACGATGG | -0.136
112 | TGACATAA | 0.338
113 | AAGGTAAA | 0.334
114 | CGCGTCGC | 0.00338
115 | ACCATTAT | -0.0343
116 | AACAATCT | 0.194
117 | ACCGCAGG | 0.0707
118 | AACATAGA | 0.2
119 | CATGTGAC | 0.148
120 | AACTTCTT | 0.0946
121 | GGACTAGA | -0.12
122 | ACGCGAAT | 0.251
123 | TAAACGAA | 0.24
124 | AGATGACC | -0.0369
125 | ATGAAGGC | 0.325

Row | Sequence | PBM E-score
126 | CTTAACCA | 0.19
127 | ACATGTAT | 0.357
128 | CGCCCTCA | -0.242
129 | CGCAAGCA | -0.0514
130 | CAAGGCAA | 0.479
131 | GGTACGTA | 0.194
132 | ACCCAAAA | -0.0205
133 | AGCAGACT | 0.00168
134 | ACCCGGCG | -0.283
135 | TATATACA | 0.316
136 | AGGGCGAT | -0.203
137 | CCATATCC | -0.163
138 | CGTGCGAA | -0.0188
139 | GCCTTCGC | 0.132
140 | GACAAGGC | 0.111
141 | ACGGGAAA | 0.0602
142 | ACAGGCTG | 0.0165
143 | GCTCGAGC | -0.0827
144 | AATAACTG | 0.0261
145 | ACATACGT | 0.127
146 | CACACCCC | 0.0557
147 | CTATTTCC | 0.267
148 | CAGACTGA | -0.132
149 | GAATTTAC | 0.134
150 | ACAATGAC | 0.0513

Row | Sequence | PBM E-score
151 | CGCCTGAA | 0.297
152 | AGGGGGTG | -0.226
153 | ATAGGTCA | 0.108
154 | CGACTTGA | -0.157
155 | GGCTACAA | -0.0512
156 | ACGAATGA | 0.141
157 | ACGACGTG | 0.187
158 | CACACTAG | -0.0999
159 | TGACAGCA | 0.0695
160 | CAGCGGCA | -0.165
161 | GCGTATCA | 0.0645
162 | AAGTCCAC | -0.187
163 | ACTGAGCG | -0.112
164 | GGCGTGAA | -0.0959
165 | CCACTGTA | -0.0867
166 | AATCGGAC | -0.167
167 | CTAGCCTC | -0.273
168 | GAATTGAA | 0.0526
169 | ACCAGTGA | -0.0292
170 | AGGACATC | -0.107
171 | CAGGCGAG | -0.0443
172 | TACTTACA | 0.245
